Common to all, as to experiment: Primary Screen for Target Class Profiling of Small Molecule Inhibitors of Methyltransferases
The target in assay [1] is Glycine N-methyltransferase (Homo sapiens) (UniProt Q14749). The settings on record: purified enzyme, MTase-Glo SAH luminescence; measured here: GNMT inhibition; at 40 µM; stronger effect = lower value. Put shortly:
(§1)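 Each enzyme was reacted with SAM and its substrate, with compounds tested once at 40 uM; SAH formed was read by MTase-Glo luminescence.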

Assay [2] has as its target Histamine N-methyltransferase (Homo sapiens) (UniProt P50135). The following applies: purified enzyme, MTase-Glo SAH luminescence; measured here: HNMT inhibition; at 40 µM; stronger effect = lower value. Summed up: as §1
Assay [3] addresses Guanidinoacetate N-methyltransferase (Homo sapiens) (UniProt Q14353). The settings on record: purified enzyme, MTase-Glo SAH luminescence; measured here: GAMT inhibition; at 40 µM; stronger effect = lower value. Put shortly:
as §1

For assay [4], the target named is Nicotinamide N-methyltransferase (Homo sapiens) (UniProt P40261). The settings on record: purified enzyme, MTase-Glo SAH luminescence; measured here: NNMT inhibition; at 40 µM; stronger effect = lower value. Put shortly:
as §1

In assay [5] the target is Phenylethanolamine N-methyltransferase (Homo sapiens) (UniProt P11086). The following applies: purified enzyme, MTase-Glo SAH luminescence; measured here: PNMT inhibition; at 40 µM; stronger effect = lower value. Put shortly: as §1

Several values for one entry are separate records, joined by “and”; a condition that tells them apart may be missing. Equal entries are not always repeated. This is one part of the list. Shown are side measurements of this screen, not its main read-out; they come without a call.
% is set by controls: 0 for no effect and ±100 for the full control effect.

Turning to `CC[C@]1(O)C[C@H]2CN(CCC3C(=Nc4ccccc43)[C@@](C(=O)OC)(c3cc4c(cc3OC)N(C)[C@H]3[C@@](O)(C(N)=O)[C@H](O)[C@]5(CC)C=CCN6CC[C@]43[C@@H]65)C2)C1` (some centres not stated), the activity change, negative = inhibition in assay [1] is -30.9%; in assay [2], -5.52%.

In the case of `C[C@@H](CN1CCC(n2c(=O)[nH]c3cc(Cl)ccc32)CC1)NC(=O)c1ccc2ccccc2c1`, the activity change, negative = inhibition in assay [1] is -3.86%; in assay [3], 0.532%; in assay [2], 3.47%; in assay [4], -34.1%; in assay [5], -13.2%.

Take `CC1(C)CC[C@]2(C(=O)O[C@@H]3O[C@H](CO[C@@H]4O[C@H](CO)[C@@H](O)[C@H](O)[C@H]4O)[C@@H](O)[C@H](O[C@@H]4O[C@H](CO)[C@@H](O)[C@H](O)[C@H]4O)[C@H]3O)CC[C@]3(C)C(=CCC4[C@@]5(C)CC[C@H](O[C@@H]6OC[C@@H](O)[C@H](O)[C@H]6O)[C@@](C)(C(=O)O)C5CC[C@]43C)[C@@H]2C1` (some centres not stated): the activity change, negative = inhibition in assay [1] is -2.06%; in assay [3], -2.64%; in assay [2], 4.56%; in assay [4] it was -14.8%; in assay [5] it was -0.877%.

For `CCc1ccc(-c2cc3n(n2)CC(C)(C(=O)NC2CCCCC2)N(CCN2CCCC2)C3=O)cc1` (configuration not stated), the activity change, negative = inhibition is -2.21% in assay [1]; 2.97% in assay [3]; -4.5% in assay [2]; 0.43% in assay [4]; -3.07% in assay [5].

Take `CCCc1cc(C)n(C)c(=O)c1CN(C)C(=O)c1cc(-c2ccc(N3CCN(C(C)C)CC3)nc2)cc2c1cnn2C(C)C`: the activity change, negative = inhibition in assay [1] was 5.26%; in assay [3], 8.98%; in assay [2], -13.5%; in assay [4], -12.1%; in assay [5], -2.04%.

Take `CCCC(=O)C1(c2ccccc2)CCN(C(=O)[C@@H](Cc2ccc(OC)cc2)NC(=O)[C@@H](N)Cc2cncn2C)CC1`: the activity change, negative = inhibition in assay [1] was 2.93%; in assay [3] it was -3.37%; in assay [2] it was -4.68%; in assay [4] it was -18.7%; in assay [5], -10.6%.

For the molecule `Cc1cc(O)c(C(C)C)cc1O[C@@H]1O[C@H](CO)[C@@H](O)[C@H](O)[C@H]1O`, the activity change, negative = inhibition in assay [1] is 0%; in assay [3], 8.6%; in assay [2] it was 9.28%; in assay [4] it was -3.54%; in assay [5], 5.64%.

As to `CC(=O)OC1CC(C)C2(CCC3(CC(=O)OC3O)O2)C2(C)CCCC(C)(C)C12` (configuration not stated), the activity change, negative = inhibition in assay [1] was -8.59%; in assay [3], -5.47%; in assay [2], 4.94%; in assay [4], -19.5%; in assay [5] it was -0.17%.

Consider `O=C1c2c(O)cc(O)cc2OC(c2ccc(O)c(O)c2)C1O` (configuration not stated), for which the activity change, negative = inhibition in assay [1] is -28.7% and 48.5%; in assay [3], 1.78% and 0%; in assay [2] it was -3.88% and 0.681%; in assay [4], -4.77% and 10.3%; in assay [5] it was 5.21% and -1.26%.

Turning to `Cc1ccc(Cn2c(=O)c3ccccc3n3c(SCC(=O)Nc4ccc(F)cc4)nnc23)cc1`, the activity change, negative = inhibition in assay [1] came to 6.12%; in assay [3], 0%; in assay [2], 14%; in assay [4] it was 8.01%; in assay [5] it was 5.62%.

For the molecule `Cc1ccccc1CSc1nnc2n(C)c(=O)c3ccc(C(=O)NC4CCCCC4)cc3n12`, the activity change, negative = inhibition in assay [1] was determined as 1.01%; in assay [3] it was 2.04%; in assay [2], 7.76%; in assay [4], 6.95%; in assay [5] it was 7.92%.

`CCc1ccc(N2C(=O)c3cc(-c4ccco4)nn3CC2(C)C(=O)NC2CCCCC2)cc1` (configuration not stated): the activity change, negative = inhibition in assay [1] is -1.71%; in assay [3] it was 5.66%; in assay [2], -1.67%; in assay [4], 1.33%; in assay [5], -5.11%.

As to `CCc1ccc(CNC(=O)c2cc3n(n2)CC(C)(C(=O)NC2CCCC2)N(CC)C3=O)cc1` (configuration not stated), the activity change, negative = inhibition turned out to be 5.78% in assay [1]; 0.834% in assay [3]; 3.38% in assay [2]; 8.38% in assay [4]; 2.12% in assay [5].

Take `O=C(Cn1nc2n(CCc3ccccc3)c(=O)c3ccccc3n2c1=O)c1ccccc1`: the activity change, negative = inhibition in assay [1] was -1.46%; in assay [3], 2.85%; in assay [2], 3.8%; in assay [4], -7.02%; in assay [5], -5.04%.

For `Cc1nn2c(SCC(=O)Nc3cccc(Cl)c3)nnc2[nH]c1=O`, the activity change, negative = inhibition in assay [1] is 8.09%; in assay [3], 2.92%; in assay [2], 6.22%; in assay [4] it was 4.89%; in assay [5] it was 3.41%.

As for `C=Cc1ccc(CSc2nnc3n(CCC)c(=O)c4ccccc4n23)cc1`, the activity change, negative = inhibition in assay [1] was -10.9%; in assay [3], 3.77%; in assay [2], -3.21%; in assay [4], -11.6%; in assay [5], 1.65%.

Consider `O=C(NCc1csc(-c2cnccn2)n1)C1NCCc2[nH]cnc21` (configuration not stated), for which the activity change, negative = inhibition is -7.05% in assay [1]; -8.57% in assay [3]; -9.22% in assay [2]; -14.5% in assay [4]; -2.55% in assay [5].

As to `Cc1ccc(CCNS(=O)(=O)c2ccc3[nH]c4c(c3c2)CCCC4)cc1`, the activity change, negative = inhibition in assay [1] is -3.89%; in assay [3] it was 3.7%; in assay [2], 2.24%; in assay [4], -7.76%; in assay [5], -6.36%.

Regarding `CCOc1ccccc1NC(=O)c1ncn2c1C(=O)N(C1CC1)C(C)(C(=O)NC1CCCC1)C2` (configuration not stated), the activity change, negative = inhibition in assay [1] is -5.98%; in assay [3], 1.69%; in assay [2], -7.21%; in assay [4] it was -12.1%; in assay [5], -7.96%.

Consider `CN(C)CCCOc1nn(Cc2ccccc2)c2ccccc12`, for which the activity change, negative = inhibition was -4.19% in assay [1]; -11.4% in assay [3]; -10.8% in assay [2]; -21.1% in assay [4]; -13.8% in assay [5].

Take `C[C@@H]1C(=O)O[C@H]2[C@H]1CC[C@@]1(C)C(=O)C=C[C@](C)(O)[C@H]21`: the activity change, negative = inhibition is 3.99% in assay [1]; 2.18% in assay [3]; 6.83% in assay [2]; -12% in assay [4]; 4.07% in assay [5].

With `COCC(=O)N[C@H]1C[C@H]2C(=O)NC[C@@H](CCC(=O)N3CCN(c4ccccn4)CC3)N2C1`, the activity change, negative = inhibition in assay [1] is 0.331%; in assay [3], -0.109%; in assay [2] it was 3.48%; in assay [4], -3.51%; in assay [5] it was -0.031%.

Turning to `CC(=O)Nc1c2n(c3ccc(F)cc13)CC(C)(C(=O)NC1CCCC1)N(Cc1ccco1)C2=O` (configuration not stated), the activity change, negative = inhibition in assay [1] is 5.95%; in assay [3], 4.53%; in assay [2], 1.08%; in assay [4], 1.47%; in assay [5], -3.02%.

For the molecule `COC(=O)[C@@H](O)[C@H]1[C@@]2(C)CC3(O)[C@@H](C(=O)[C@H]2O)[C@]24O[C@]25CC(=O)O[C@@H](c2ccoc2)[C@]5(C)CCC4[C@]13C` (some centres not stated), the activity change, negative = inhibition in assay [1] was 0%; in assay [3], 1.97%; in assay [2] it was 7.44%; in assay [4], -9.82%; in assay [5] it was 0.155%.

`Cc1cc2c(cc3n2CC(C)(C(=O)NC2CCCCC2)N(Cc2cccc(F)c2)C3=O)o1` (configuration not stated): the activity change, negative = inhibition was 0.094% in assay [1]; 4.38% in assay [3]; 0.916% in assay [2]; -6.17% in assay [4]; -0.998% in assay [5].

On to `Cc1ccc(C2(O)CCN(C(=O)c3cnn4cc(CCO)cnc34)CC2)nc1`, for which the activity change, negative = inhibition is -3.54% in assay [1]; 0.944% in assay [3]; 1.89% in assay [2]; 0.787% in assay [4]; 2.54% in assay [5].

For `O=S(=O)(Nc1cccc(Br)c1)c1ccc2[nH]c3c(c2c1)CCCC3`, the activity change, negative = inhibition in assay [1] was -5.89%; in assay [3] it was -0.019%; in assay [2], -1.76%; in assay [4] it was -13%; in assay [5] it was -3.74%.

On to `CC(C)C1CCC(CO)=CC1/C=C(\CO)C(=O)OCC1(O)CCC(C(C)C)C2C=C(C(=O)O)COC(=O)C21` (configuration not stated), for which the activity change, negative = inhibition is 0% in assay [1]; -4.09% in assay [3]; 0.644% in assay [2]; -17.4% in assay [4]; -0.394% in assay [5].
